Reference: patent publication US20040157930A1, “Histone deacetylase enzyme-inhibiting derivatives of hydroxamic acid as new cytokine synthesis-inhibiting anti-inflammatory drugs” (priority 2001, published 2004)
For at least one compound, name, drawing or mass did not settle the structure.

Target: histone deacetylase (HDAC)
Experiment: Histone deacetylase (HDAC) inhibition test (Lechner et al.)
Format: biochemical
Details: for HDAC Potency: relative potency, compound 1 = 100.00

Row | SMILES | IC50 | HDAC Potency
1 | CCN(CC)Cc1ccc2cc(COC(=O)Nc3ccc(C(=O)NO)cc3)ccc2c1 [Compound 1] | 0.02 µM | 100.00
2 | CCN(CC)Cc1ccc2cc(CCC(=O)Nc3ccc(C(=O)NO)cc3)ccc2c1 [Compound 2] | 0.062 µM | 32.26
3 | CCN(CC)Cc1ccc(COC(=O)Nc2ccc(C(=O)NO)cc2)c2ccccc12 [Compound 3] | 0.065 µM | 30.77
4 | CCN(CC)Cc1ccc2cc(CNC(=O)Nc3ccc(C(=O)NO)cc3)ccc2c1 [Compound 4] | 0.076 µM | 25.64
5 | CCCN(CCC)Cc1ccc2cc(COC(=O)Nc3ccc(C(=O)NO)cc3)ccc2c1 [Compound 5] | 0.0467 µM | 42.86
6 | O=C(Nc1ccc(C(=O)NO)cc1)OCc1ccc2c(c1)OCO2 [Compound 6] | 0.08 µM | 25.00
7 | O=C(Nc1ccc(C(=O)NO)cc1)OCC1CCc2ccccc2C1 (stereo not drawn) [Compound 7] | 0.091 µM | 21.98
8 | CCCCN(CCCC)Cc1ccc2cc(COC(=O)Nc3ccc(C(=O)NO)cc3)ccc2c1 [Compound 8] | 0.133 µM | 15.00
9 | O=C(Nc1ccc(C(=O)NO)cc1)OCCC12CC3CC(CC(C3)C1)C2 [Compound 9] | 0.6 µM | 3.33
10 | O=C(Nc1ccc(C(=O)NO)cc1)OCCCc1ccccc1 [Compound 10] | 0.105 µM | 19.05
11 | O=C(Nc1ccc(C(=O)NO)cc1)OCc1ccc2ccccc2c1 [Compound 11] | 0.0081 µM | 246.91
12 | O=C(Nc1ccc(C(=O)NO)cc1)OCCCc1ccccn1 [Compound 12] | 0.26 µM | 7.69
13 | O=C(Nc1ccc(C(=O)NO)cc1)OCCCc1ccncc1 [Compound 13] | 0.26 µM | 7.69
14 | O=C(CCCCc1ccccc1)Nc1ccc(C(=O)NO)cc1 [Compound 14] | 0.0867 µM | 23.08
15 | CC[N+]([O-])(CC)Cc1ccc2cc(COC(=O)Nc3ccc(C(=O)NO)cc3)ccc2c1 [Compound 15] | 0.207 µM | 9.68
